± gives the standard deviation of the averaged measurements. This is one part of the list.
System: PfAP2-EXP AP2 domain (GST-tagged)
Assay: gcPBM binding intensity (ln(normalized median fluorescence intensity)); higher = stronger DNA binding
In short: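 An Agilent 4 × 180k array carrying primer-extended double-stranded 36-bp intergenic genomic probes and negative controls received GST-tagged P. falciparum DNA-binding domains expressed in E. coli, about 25 μg on average, for 1 h. The binding buffer contained 1× PBS, 1% milk, 0.2 mg/ml BSA, 0.5% salmon testes DNA and 0.03% Triton X-100. Binding intensity is the top Masliner-normalised natural-log median intensity across replicate spots of either probe orientation, read after Alexa488 anti-GST antibody staining and a 488 nm scan.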

Sequence | gcPBM binding intensity (ln)
TTTAATAATAATACTAGTACACATTCTTTATTATTT [XGTACX_site2671] | 8.72 ± 0.4
TTTTTTTTTTTTTGCACACTTAAATTTGGAGTGTAG [CACACA_site2345] | 8.34 ± 0.41
TATATAAATAAATATACACACATATATAAATATACA [CACACA_site2982] | 8.32 ± 0.33
AAAGTAAAAAATCATAGTACACATTTAAATATATAT [XGTACX_site2323] | 8.72 ± 0.36
TTTTTTAAATTATGTAGTACGATTCATTTTTTATAA [XGTACX_site1101] | 8.34 ± 0.33
GGTATATATTTATAATGTACATATTCATATATATAA [XGTACX_site3291] | 8.45 ± 0.39
TAATATATCAAATGAAGTACTCACATATACATAATA [XGTACX_site6051] | 8.53 ± 0.35
AATATCTTAGTGGATACACACATATAAATGTGGATT [CACACA_site485] | 8.22 ± 0.42
AAGATTTTCCTTGATAGTACACTTATGAAAATTTGT [XGTACX_site3047] | 8.53 ± 0.26
TTTTTTTTTTTTTTTTTTTTTTTGTCTTATTTTTTT [GTGCAC_negctrl_site338] | 7.84 ± 0.31
ATATATTACGACTTCTGTACATAATATATAAAAGAA [XGTACX_site2353] | 8.61 ± 0.33
AAAAAAAAAAAAAAATGTACATATATATAAATATAT [XGTACX_site6768] | 8.34 ± 0.4
TATTTATATGTATATACATGCACATATATATGAAAC [TGCATGCA_site1005] | 9.01 ± 0.42
TATGTAATGTTTACAACACACAAATTATAAATACAA [CACACA_site1771] | 8.38 ± 0.4
ATATATATATATATATGTACATATTTTTATTTATAC [XGTACX_site2858] | 10.2 ± 0.3
ACCTATATACTAAATGCACACTTATATATTTATATA [CACACA_site5371] | 8.86 ± 0.19
CTATTTTATATGTGCACACATATACTCAGACAAATA [CACACA_site4761] | 9.05 ± 0.25
AAATTAATACATTATTGTACTTTTCATGTGCAGAAA [XGTACX_site8284] | 8.42 ± 0.21
TAATTCGCATTTTATACACACATTCGAACCTTTTTT [CACACA_site7549] | 8.99 ± 0.42
CGGATGAATATATATGCACACATCTTTTGTAAAAAT [CACACA_site3190] | 8.51 ± 0.38
CATATTACATTAAATTGTACATATATATATATATAT [XGTACX_site3295] | 10 ± 0.33
TGTATAAATATATGCACACATATATATATTTATATA [CACACA_site3473] | 8.31 ± 0.27
GAGAAAAAAAAAAAAAAACACACGGTACATTCAAAG [CACACA_site1767] | 8.56 ± 0.51

Sequence | gcPBM binding intensity (ln)
TCAATAAATGAATATGCATGCACGCTCTTTAGAGAT [TGCATGCA_site553] | 9.72 ± 0.085
ATATTTATAAATTGCACACAAATAATAACATTCTAT [CACACA_site2357] | 8.43 ± 0.31
AATTGGGAAGGACATGCATGAGAAATTAATATTGCA [TGCATGCA_site424] | 8.87 ± 0.43
TATTATTATTATGGTAGTACATGTAGGTTATTAAAA [XGTACX_site5742] | 8.72 ± 0.35
TCAATTTTACTTGTTTGTACATAAAATAATAAGGTT [XGTACX_site3732] | 8.44 ± 0.47
AAGAAAAAAAAAATTACACACTGCGGACATACACAA [CACACA_site4838] | 8.79 ± 0.54
AACATACACATATACACACACACATATATACCTATA [CACACA_site6643] | 8.79 ± 0.45
ATATTTTGTTTTTGTTCTTTTTTTTTCTTTTTTTTT [CACACA_negctrl_site1342] | 8.69 ± 0.59
TATATTAAATGAAACAAACACACATAGCCTTTAAAT [CACACA_site1559] | 8.79 ± 0.64
ACTTTGCTCTACAATGCATGCTCATTTAACAAGGCA [TGCATGCA_site676] | 9.59 ± 0.3
ATATCTACTATACAACTGAGTGTAGAAAAATTAAAC [CACACA_negctrl_site1211] | 8.87 ± 0.34
ATACGAAAAAAAAAAAGTACACAAAAATATCTACAT [XGTACX_site2051] | 8.54 ± 0.43
ATTATATTAGGTAATCAGTTAAATGTTTCCTTTTTA [CACACA_negctrl_site1229] | 8.35 ± 0.43
AAAATATGGATTCATGATATTAAATTTAATTTAATG [XGTACX_negctrl_site214] | 8.21 ± 0.48
ATATAAATAATGTTGACACACACAATAATCTTATTA [CACACA_site9197] | 8.28 ± 0.41
GTTATACTCATATATACACACATATGTAAATATATA [CACACA_site5764] | 8.94 ± 0.58
TTTATATAATTTTGTGGTACTTATGTGTGTATATTA [XGTACX_site706] | 8.62 ± 0.51
TAAATTATCTTTTTATGTACTTATTTTTATTATTTT [XGTACX_site3158] | 8.65 ± 0.36
AAAAAAAAAAAAAGTACACACTTATAAAATATTATG [CACACA_site4639] | 8.29 ± 0.39
CGCGCACCCAGACACACACACACACCGATATATATA [CACACA_site8687] | 8.73 ± 0.45
TATTTTCAACATATTTGTACATATTTTATATTTTAA [XGTACX_site101] | 8.65 ± 0.35
ATTATGATTTTATAGAACTGAACATTTACATTAAAT [GTGCAC_negctrl_site192] | 8.32 ± 0.45
TGCATACTAGCCAATTGTACATAATTTTATTTTAAA [XGTACX_site513] | 8.53 ± 0.26

Sequence | gcPBM binding intensity (ln)
AAAAGGAACAGACACACACACATATATATATATATA [CACACA_site3587] | 10.3 ± 0.25
AAAATAAATCTGAATGGGGTATAATATATCTTTGTT [CACACA_negctrl_site744] | 8.29 ± 0.47
ATAACAAAATAAAACACACACACAAATGTACTTATA [CACACA_site8768] | 8.61 ± 0.38
ATTTATTATATATACACACATACATATATATATATA [CACACA_site2159] | 9.91 ± 0.42
AAAAAATTCTGGTACTGTACACATTTTTTTAAATTT [XGTACX_site6904] | 8.51 ± 0.29
TGCTTTTATTTCTTCACACATATGTAAAAAAAAGAA [CACACA_site5906] | 8.76 ± 0.42
ATATGAGAGAATAAAACACACAAAAAAAAAAAAAAA [CACACA_site2865] | 8.12 ± 0.58
GTAGCCTTTCTTTATAAAGGCAAACAAACAAAAAAT [CACACA_negctrl_site1491] | 8.65 ± 0.42
TAATAATCAAGTTAACGTACAAAATCATCTATAGAA [XGTACX_site5921] | 8.73 ± 0.44
TGTATGTATTTTCAATGTACATAAAAAAAAAAAAAA [XGTACX_site4397] | 8.32 ± 0.4
TATTTTTTTTGTTAGGTGCATTTACATTTATTTTTA | 9.02 ± 0.32
TTATATAGGCAGATGGTGCATCTATTTATAAGCAAC | 8.78 ± 0.15
AAAAATTAAAAGAAAATACACACCTGTGGGTGCTTA [CACACA_site1988] | 8.05 ± 0.35
AAAAAAAAAAGTTCTACACACACAAAAAAATATTTT [CACACA_site8725] | 8.57 ± 0.86
TATAATATAATTAAAAGTACTTAAAAAAGAATGAAA [XGTACX_site1157] | 8.9 ± 0.4
TGTTTATATAATATTCTACACACCAACAACAAACAT [CACACA_site8087] | 8.95 ± 0.4
TATTTTTATAAAAATCGTACAAGTGATCCAATTTTT [XGTACX_site4402] | 8.55 ± 0.37
TTTTTAAAACATATCACACATATATATATATATATA [CACACA_site5991] | 10.3 ± 0.41
CCGTATTCAAAAAGGAGTACACAATTATATGTTATA [XGTACX_site641] | 8.61 ± 0.23
TAAATATATTCATAAAGTACAAAGCAAAATTGTCTA [XGTACX_site7274] | 8.5 ± 0.41
GAAATAAATATATATGCATGTACTTTAATATTATTA [TGCATGCA_site904] | 8.57 ± 0.16
GTGCTTATTTATACATGTACAAATGATAAGTTTGTA [XGTACX_site169] | 8.86 ± 0.2
AGGTGATTGATATATACACACATACCTATATTTATA [CACACA_site7348] | 8.36 ± 0.35

Sequence | gcPBM binding intensity (ln)
TGTTTATTTAATAATATTTTTTTTTTTATTATATTA [XGTACX_negctrl_site56] | 8.08 ± 0.58
TTTTTTCTTTTATGTGAAATGTAATATTGTTATATA [GTGCAC_negctrl_site715] | 8.21 ± 0.49
TTATTAAAATATTCTAGTACATATAAAAGGAGAACA [XGTACX_site4374] | 8.9 ± 0.3
ATATAAAGAAAAGGAACACACAAATATATATATATA [CACACA_site463] | 10.1 ± 0.31
ATATATTATTTTAAATGTACTCATAATAGAAATGTC [XGTACX_site40] | 8.53 ± 0.099
CACACAGGTAAAAAGGTGCAGTTGAAATATTCCTCA [GTGCAC_site9730] | 8.63 ± 0.17
AAATAAAAGGTTGAGAGTACATTTTTGTGTATGTAT [XGTACX_site5547] | 8.46 ± 0.4
AAAAAAAAAATACAACAAAGTTAAATAAATAAATAA [GTGCAC_negctrl_site402] | 8.45 ± 0.34
AGCTCTCAAAATTATTCACACGTGTCCTGTTATATA [CACACA_site5415] | 9.26 ± 0.47
ATATTTCATTAATGAACACACAAAGAGGTATATAAA [CACACA_site1519] | 8.93 ± 0.4
ATATTTAAAAATATAGTGCAATTATTCTAATGTGTT | 8.32 ± 0.15
CACGCACGCACATACACACACATACACATATAAATA [CACACA_site6907] | 8.78 ± 0.34
ATGTTGTTCATAAATATATTATTTTTAAATGTACAA [GTGCAC_negctrl_site507] | 8.32 ± 0.36
ATATATTCACGTTAATGTACACATAATAAATTATAT [XGTACX_site5481] | 8.62 ± 0.36
ATATATATTATTGAATGTACATAATTATTTAATAGT [XGTACX_site4971] | 8.76 ± 0.38
GTATTTAGATGATTAACACACATATGTGTATTAATA [CACACA_site6733] | 8.37 ± 0.27
TATTCACTGATATGTTGTACATAAAAAAAATTAAAT [XGTACX_site6128] | 8.5 ± 0.33
AATTATATTGGTTGTAGTACTAAAAGTAAGTTAATG [XGTACX_site33] | 8.69 ± 0.35
TTTTTTATATTGATATTTATTAAATATGAAATGTTA [GTGCAC_negctrl_site405] | 7.97 ± 0.44
TGAAAAAAGAAAAATACACACATATAATATAATATA [CACACA_site2255] | 8.48 ± 0.49
